Some of the results follow. These are noisy estimates, calculated here from bound and input reads.

These results are taken from the BET-seq Pho4 binding data (Le et al. 2018).

This test concerns the target T1, Pho4 (S. cerevisiae) (UniProt P07270).
T1 sequence: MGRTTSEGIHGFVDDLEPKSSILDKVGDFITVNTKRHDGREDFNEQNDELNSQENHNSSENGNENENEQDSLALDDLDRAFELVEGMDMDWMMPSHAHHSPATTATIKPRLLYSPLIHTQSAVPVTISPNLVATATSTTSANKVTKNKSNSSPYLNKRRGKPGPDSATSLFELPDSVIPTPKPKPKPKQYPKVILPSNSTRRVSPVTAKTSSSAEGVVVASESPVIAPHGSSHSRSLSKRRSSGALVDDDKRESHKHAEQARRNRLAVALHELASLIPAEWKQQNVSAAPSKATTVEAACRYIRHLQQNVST
Kind of test: relative binding free energy (BET-seq); higher = weaker binding. To be noted: reference: library average.
Consider AGGGTCACGTGCTGGT, for which the “relative binding free energy” value was -0.05 kcal/mol.

Consider CGTGGCACGTGCGGTA, for which the “relative binding free energy” value is -0.23 kcal/mol.

For GGAACCACGTGGGGCG, the “relative binding free energy” value is -0.02 kcal/mol.

With TATCGCACGTGAAGTT, the “relative binding free energy” value was determined as 0.22 kcal/mol.

Turning to CTCGTCACGTGGTTTG, the “relative binding free energy” value is 0.17 kcal/mol.

Consider TTAAGCACGTGCGGTT, for which the “relative binding free energy” value was -0.19 kcal/mol.

For the sequence ATTTTCACGTGACGTT, the “relative binding free energy” value came to 0.36 kcal/mol.

GTTTACACGTGTTGTT: the “relative binding free energy” value worked out at 0.18 kcal/mol.

On to TAGTGCACGTGTAGGG, for which the “relative binding free energy” value was -0.01 kcal/mol.

In the case of GTAGTCACGTGAGAGG, the “relative binding free energy” value was 0.37 kcal/mol.

As to TAAGGCACGTGTGGAA, the “relative binding free energy” value was -0.1 kcal/mol.

Regarding AGTTGCACGTGTTGTG, the “relative binding free energy” value is 0.09 kcal/mol.

With TGCGTCACGTGGTATG, the “relative binding free energy” value was 0.02 kcal/mol.

For GGAATCACGTGTAAGT, the “relative binding free energy” value came to 0.27 kcal/mol.

For the sequence ATATTCACGTGCTGTT, the “relative binding free energy” value was 0.11 kcal/mol.

On to CGTGTCACGTGGATGA, for which the “relative binding free energy” value turned out to be 0.15 kcal/mol.

As to GATTACACGTGGGGTT, the “relative binding free energy” value is 0.05 kcal/mol.

On to TTGGACACGTGTAGTT, for which the “relative binding free energy” value is 0.05 kcal/mol.

For ATGGGCACGTGATACG, the “relative binding free energy” value is -0.02 kcal/mol.

In the case of TAGGTCACGTGTGTGA, the “relative binding free energy” value is 0.14 kcal/mol.

For the sequence GGGAGCACGTGATCGG, the “relative binding free energy” value turned out to be 0.12 kcal/mol.

Take TTCAGCACGTGGCGGA: the “relative binding free energy” value was -0.04 kcal/mol.

For the sequence ATGTGCACGTGGGCTG, the “relative binding free energy” value was -0.16 kcal/mol.

Consider GGATTCACGTGCGTAG, for which the “relative binding free energy” value is 0.31 kcal/mol.

With CGTCGCACGTGTTATG, the “relative binding free energy” value worked out at 0.06 kcal/mol.

As for TTGTACACGTGGTACT, the “relative binding free energy” value was -0.01 kcal/mol.

For the sequence TAGAGCACGTGGTTCT, the “relative binding free energy” value is -0.19 kcal/mol.

As for ATTGACACGTGTGGAT, the “relative binding free energy” value was 0.02 kcal/mol.

Regarding AGTAACACGTGGAGGG, the “relative binding free energy” value amounted to 0.01 kcal/mol.

With TGGGCCACGTGTTAAT, the “relative binding free energy” value was -0.01 kcal/mol.

For TATAACACGTGTTATA, the “relative binding free energy” value was -0.05 kcal/mol.

As for TTGGTCACGTGTAGGA, the “relative binding free energy” value stood at 0.12 kcal/mol.

As for GTACGCACGTGTGGGG, the “relative binding free energy” value was -0.08 kcal/mol.

On to ATTTTCACGTGAGGTA, for which the “relative binding free energy” value came to 0.42 kcal/mol.

For TGTGTCACGTGCTTTC, the “relative binding free energy” value stood at 0.02 kcal/mol.

Turning to GTTTCCACGTGTGGGC, the “relative binding free energy” value turned out to be 0.12 kcal/mol.

Take CTTTACACGTGTATGT: the “relative binding free energy” value is -0.12 kcal/mol.

For the sequence GGTCGCACGTGAGGCT, the “relative binding free energy” value stood at 0.42 kcal/mol.

In the case of CGTGTCACGTGTGCGA, the “relative binding free energy” value was determined as 0.03 kcal/mol.

As for ATGTACACGTGGGGAA, the “relative binding free energy” value came to 0.03 kcal/mol.

For the sequence TTGATCACGTGTGTAG, the “relative binding free energy” value came out at 0.15 kcal/mol.

Take TTTTGCACGTGGGGGG: the “relative binding free energy” value was -0.11 kcal/mol.

Turning to TAGGTCACGTGCGAGG, the “relative binding free energy” value is 0.06 kcal/mol.

As for ACTAGCACGTGTTATG, the “relative binding free energy” value was 0 kcal/mol.

For TTTTGCACGTGTCGTC, the “relative binding free energy” value is -0.06 kcal/mol.

Consider GATGGCACGTGTGTCT, for which the “relative binding free energy” value amounted to 0.06 kcal/mol.

As to ATAGACACGTGGGGTA, the “relative binding free energy” value was -0.2 kcal/mol.

On to CGGGTCACGTGCGGAT, for which the “relative binding free energy” value is 0.07 kcal/mol.

In the case of TTGTTCACGTGACGGC, the “relative binding free energy” value worked out at 0.35 kcal/mol.

As to TGCGTCACGTGCATGT, the “relative binding free energy” value was 0.11 kcal/mol.

Take AGTATCACGTGAGTGC: the “relative binding free energy” value came to 0.25 kcal/mol.

Consider TGCGGCACGTGGGATT, for which the “relative binding free energy” value was -0.19 kcal/mol.

As for TTTGGCACGTGGGTAG, the “relative binding free energy” value is -0.18 kcal/mol.

As to CGGTTCACGTGTTAGT, the “relative binding free energy” value came out at 0.34 kcal/mol.

With GTGGTCACGTGGAAGA, the “relative binding free energy” value stood at 0.22 kcal/mol.

Regarding AAAAGCACGTGAGGGG, the “relative binding free energy” value was 0.11 kcal/mol.

With ACCGGCACGTGGGCGT, the “relative binding free energy” value is -0.13 kcal/mol.

With CGGCGCACGTGGGCTG, the “relative binding free energy” value is -0.33 kcal/mol.

In the case of ATGTACACGTGGAGGT, the “relative binding free energy” value was -0.01 kcal/mol.

For GGTGGCACGTGTATCT, the “relative binding free energy” value was -0.05 kcal/mol.

As to GGGATCACGTGTTTTC, the “relative binding free energy” value was determined as 0.28 kcal/mol.

For the sequence TTGTGCACGTGAATGA, the “relative binding free energy” value is 0.19 kcal/mol.

For the sequence TGAGTCACGTGGAATT, the “relative binding free energy” value came out at 0.17 kcal/mol.

Consider GATTTCACGTGCTTGG, for which the “relative binding free energy” value turned out to be 0.4 kcal/mol.

Turning to AAGTTCACGTGAGAGA, the “relative binding free energy” value worked out at 0.44 kcal/mol.

On to GGGCACACGTGGCGGT, for which the “relative binding free energy” value is -0.02 kcal/mol.

On to GTATTCACGTGCCGGG, for which the “relative binding free energy” value turned out to be 0.25 kcal/mol.

In the case of GGTGCCACGTGAGGTT, the “relative binding free energy” value came to 0.3 kcal/mol.

For CATGGCACGTGTGAGG, the “relative binding free energy” value is -0.03 kcal/mol.

TAGGTCACGTGTGTCC: the “relative binding free energy” value stood at 0.27 kcal/mol.

For TAGTGCACGTGATTTG, the “relative binding free energy” value is 0.12 kcal/mol.

Take GCCGGCACGTGAGGGC: the “relative binding free energy” value amounted to 0.24 kcal/mol.

For the sequence TATTTCACGTGGTGTA, the “relative binding free energy” value was found to be 0.17 kcal/mol.

Regarding ATTGTCACGTGGAAAA, the “relative binding free energy” value amounted to 0.2 kcal/mol.

With AGTTGCACGTGTATAG, the “relative binding free energy” value worked out at 0 kcal/mol.

With CGGGACACGTGTCTGT, the “relative binding free energy” value was determined as 0.05 kcal/mol.

AAATGCACGTGAAGGG: the “relative binding free energy” value came out at 0.29 kcal/mol.

CAGTTCACGTGGGAGA: the “relative binding free energy” value worked out at 0.2 kcal/mol.

As for GTTAACACGTGTGTAT, the “relative binding free energy” value amounted to 0.19 kcal/mol.

For GTCTTCACGTGCAGTG, the “relative binding free energy” value is 0.34 kcal/mol.

As to CGAAGCACGTGTAGGT, the “relative binding free energy” value was 0.01 kcal/mol.

Regarding AATGTCACGTGAGGGA, the “relative binding free energy” value amounted to 0.24 kcal/mol.

For GAGGACACGTGCTGGG, the “relative binding free energy” value stood at 0.03 kcal/mol.

As for AGTGTCACGTGGGTAT, the “relative binding free energy” value is -0.11 kcal/mol.

Consider TAAATCACGTGGTCTG, for which the “relative binding free energy” value was 0.16 kcal/mol.

Regarding TTTTGCACGTGGACTT, the “relative binding free energy” value came out at 0.08 kcal/mol.

Consider GGGGGCACGTGGTGAG, for which the “relative binding free energy” value is -0.09 kcal/mol.

CGTGGCACGTGACTGT: the “relative binding free energy” value was -0.08 kcal/mol.

ACTTTCACGTGGGAGT: the “relative binding free energy” value turned out to be 0.14 kcal/mol.

Consider TGGTTCACGTGAGTAA, for which the “relative binding free energy” value came to 0.34 kcal/mol.

For GTTGTCACGTGATTTT, the “relative binding free energy” value stood at 0.28 kcal/mol.

Regarding ATGCGCACGTGGAGGG, the “relative binding free energy” value is -0.16 kcal/mol.

On to TGTTTCACGTGAGGCG, for which the “relative binding free energy” value worked out at 0.38 kcal/mol.

On to GTAGGCACGTGCTGGG, for which the “relative binding free energy” value is -0.12 kcal/mol.

For the sequence TTGTGCACGTGGTCGG, the “relative binding free energy” value was -0.06 kcal/mol.

Consider ACGGTCACGTGGGTGG, for which the “relative binding free energy” value is -0.05 kcal/mol.

On to ACTGTCACGTGGCTTG, for which the “relative binding free energy” value was 0.06 kcal/mol.

In the case of AATGGCACGTGGGCCT, the “relative binding free energy” value is -0.19 kcal/mol.

Take TTTTACACGTGTCATG: the “relative binding free energy” value came out at 0.1 kcal/mol.

With TACTGCACGTGTTCGT, the “relative binding free energy” value stood at 0.06 kcal/mol.

Take ATTATCACGTGTGAGC: the “relative binding free energy” value amounted to 0.29 kcal/mol.

On to CGTCACACGTGTGAGG, for which the “relative binding free energy” value was found to be 0.2 kcal/mol.

As to GTAACCACGTGGGTTT, the “relative binding free energy” value was -0.07 kcal/mol.

In the case of TTGGACACGTGTAACG, the “relative binding free energy” value worked out at 0.26 kcal/mol.

Turning to TGTTGCACGTGGTTTC, the “relative binding free energy” value was determined as 0.05 kcal/mol.

With GTAGGCACGTGCGCGG, the “relative binding free energy” value was -0.34 kcal/mol.

GGCTTCACGTGTGTTT: the “relative binding free energy” value was determined as 0.28 kcal/mol.

For CGAGGCACGTGAGAGG, the “relative binding free energy” value stood at 0.09 kcal/mol.

For the sequence CCGTCCACGTGGGGGG, the “relative binding free energy” value was -0.17 kcal/mol.

Consider GAAGGCACGTGGATAG, for which the “relative binding free energy” value is -0.08 kcal/mol.

Consider AGATTCACGTGGTGTT, for which the “relative binding free energy” value was found to be 0.18 kcal/mol.

Turning to ATATACACGTGGTTAG, the “relative binding free energy” value was -0.07 kcal/mol.

Turning to GCGCGCACGTGAAGGG, the “relative binding free energy” value came out at 0.13 kcal/mol.

In the case of TGAATCACGTGACGAG, the “relative binding free energy” value was 0.51 kcal/mol.

Take ATGTGCACGTGGGTGG: the “relative binding free energy” value is -0.17 kcal/mol.
